“And” between values parts separate entries of the source, which are not always exact repeats. Identical values can stand only once. About 16,000 (7.3%) of roughly 220,000 compounds were called active. This list was built around the results that the source calls inconclusive (neither active nor inactive); the mix of calls is not that of the screen. The call rests on the fitted dose curve; in most records, active means well fitted inhibition curve with a large enough effect (not every such curve was filed as active); inconclusive means small, poorly fitted or top-dose-only effect, or another doubt; inactive means no such curve, though single readings can be large or run the other way. Potencies of inconclusive entries are doubtful fits and often do not repeat.
What follows are compounds tested against Aldehyde dehydrogenase 1A1 (Homo sapiens) (UniProt P00352) (assay: qHTS Assay for Inhibitors of Aldehyde Dehydrogenase 1 (ALDH1A1)). Settings: Purified ALDH1A1, NADH fluorescence, propionaldehyde substrate; series mostly up to 75.3 µM; activity, negative = inhibition: at the top concentration.
Chain of UniProt P00352 (P00352 whole entry, looked up): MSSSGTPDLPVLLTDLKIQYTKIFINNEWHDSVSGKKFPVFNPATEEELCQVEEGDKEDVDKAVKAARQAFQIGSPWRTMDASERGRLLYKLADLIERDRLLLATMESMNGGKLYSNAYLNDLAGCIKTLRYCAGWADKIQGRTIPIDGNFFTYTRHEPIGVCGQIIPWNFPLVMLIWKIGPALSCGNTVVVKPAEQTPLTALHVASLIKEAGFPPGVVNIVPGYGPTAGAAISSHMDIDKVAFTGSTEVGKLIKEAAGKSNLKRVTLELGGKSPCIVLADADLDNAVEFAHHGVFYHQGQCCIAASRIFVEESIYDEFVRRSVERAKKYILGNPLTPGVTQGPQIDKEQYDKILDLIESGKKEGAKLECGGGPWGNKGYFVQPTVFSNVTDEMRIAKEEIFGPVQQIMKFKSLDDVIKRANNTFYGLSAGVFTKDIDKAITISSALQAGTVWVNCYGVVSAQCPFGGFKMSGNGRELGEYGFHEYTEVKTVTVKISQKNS
Potency means the concentration at half of the fitted maximal effect; tags describe the fitted curve by direction and shape.
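Wherever activity, negative = inhibition is given: plate controls were no enzyme wells and a reference inhibitor.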

Row | Compound | Potency | activity, negative = inhibition
1 | CCC(Sc1nncn1C)C(=O)Nc1nnc(-c2ccc(Cl)cc2)s1 (stereo not given) | inconclusive: 28.2 µM [inhibitor, single point] | 
2 | O=c1oc2cc(Oc3c([N+](=O)[O-])cc(C(F)(F)F)cc3[N+](=O)[O-])ccc2c2c1CCCC2 | inconclusive: 28.2 µM [inhibitor, partial curve] | 
3 | O=C(O)CCSc1nnc(-c2ccncc2)n1-c1ccccc1 |  | inactive: 9.08%
4 | Cc1ccc(C(=O)CSC2=C(C#N)C(c3ccco3)CC(=O)N2)c(C)c1 (stereo not given) | inconclusive: 25.1 µM [inhibitor, single point] | 
5 | CC1(C)Cc2c(C#N)c(NCCN3CCOCC3)nc(-c3ccco3)c2CO1 | inconclusive: 12.6 µM [inhibitor, partial curve] | 
6 | CCOc1cc(/C=C2\SC(=Nc3ccccc3)N(c3ccccc3)C2=O)ccc1OCC(=O)O | inconclusive: 20 µM [inhibitor, partial curve] | 
7 | COc1ccc2c(c1OC)C(=O)N(c1cccc(C)c1)C2=O | active: 5.01 µM | 
8 | N#Cc1cc2c(nc1SCC(=O)O)CCCC2 | inconclusive: 31.6 µM [inhibitor, single point] | 
9 | Cc1ccc(-c2ccccc2)n1-c1cccc(C(=O)O)c1 | inconclusive: 28.2 µM [inhibitor, single point] | 
10 | CCNCC(O)COCC(O)CNCC (stereo not given) |  | inactive: 4.57%
11 | O=c1cnc2cnc(N3CCNCC3)nc2n1CCc1ccccc1 | inconclusive: 31.6 µM [inhibitor, partial curve] | 
12 | CC(=O)c1c(C)[nH]c(C(=O)N(C)C(c2ccccc2)c2ccccc2)c1C | active: 17.8 µM | 
13 | Cc1cccc(CNc2nc(-c3ccc(C(=O)N(C)C)cc3)nc3ccccc23)c1 |  | inactive: -7.57%
14 | Cc1ccc(-c2nc3ncccc3o2)cc1NC(=O)c1ccccc1 | inconclusive: 31.6 µM [inhibitor, partial curve] | 
15 | CCOC(=O)c1cn(Cc2ccccc2)c2cc(C)nn2c1=O | inconclusive: 35.5 µM [inhibitor, single point] | 
16 | CC(C)c1ccc(OCC(=O)NC(=S)Nc2ccc3c4c(cccc24)CC3)cc1 | inconclusive: 25.1 µM [inhibitor, single point] | 
17 | Cc1cc2nc(C)c(=O)n(C)c2cc1C | inconclusive: 31.6 µM [inhibitor, partial curve] | 
18 | Cc1ccc(SCc2cc(=O)[nH]c(Nc3nc(C)c4ccc(C)cc4n3)n2)cc1 | inconclusive: 2.82 µM [inhibitor, full curve, poor fit] | 
19 | O=[N+]([O-])c1ccc(NCCCNS(=O)(=O)c2ccccc2)c(Cl)c1 | inconclusive: 25.1 µM [inhibitor, single point] | 
20 | COc1ccc(OCc2nn3c(-c4ccco4)nnc3s2)cc1 | active: 31.6 µM | 
21 | Cc1cc(C)n(-c2ccc(C(=O)C(C#N)c3nc4ccccc4n3C)cc2)n1 (stereo not given) | inconclusive: 35.5 µM [inhibitor, single point] | 
22 | CCn1c(N2CCN(CC(=O)c3c(C)n(C)c4ccccc34)CC2)nc2c1c(=O)[nH]c(=O)n2C | inconclusive: 39.8 µM [inhibitor, single point] | 
23 | O=C(NCCC1=CCCCC1)C(c1ccccc1)c1ccccc1 |  | inactive: 5.26%
24 | CCCC(C(=O)NC1=NCCS1)c1ccccc1 (stereo not given) |  | inactive: 2.59%
25 | CCN(C(C)=O)c1nnc(CSc2nc3ccccc3s2)s1 | inconclusive: 2.24 µM [inhibitor, partial curve] | 

Row | Compound | Potency | activity, negative = inhibition
26 | CC(C)c1ccc(/C=N/N2CCCCC2)cc1 | inconclusive: 39.8 µM [inhibitor, single point] | 
27 | CCc1c(C)nc2c(C#N)c[nH]n2c1=O | inconclusive: 37.7 µM [inhibitor, single point] | 
28 | CC[N+]1(CC)CC2CCC(C)(C1)C2(C)C (stereo not given) |  | inactive: 5.63%
29 | COc1ccccc1/C=C/C=N/n1c(-c2n[nH]c3c2CCC3)n[nH]c1=S | active: 8.91 µM | 
30 | CCCCCOc1ccc(/C=c2\sc3ncnn3c2=O)cc1 | inconclusive: 31.6 µM [inhibitor, partial curve] | 
31 | O=c1oc(Nc2ccc(F)cc2)nc2ccccc12 | inconclusive: 39.8 µM [inhibitor, single point] | 
32 | COc1ccccc1C1C(C(=O)c2cc3ccccc3o2)=C(O)C(=O)N1CCN(C)C (stereo not given) | active: 20 µM | 
33 | N#CCCCN1C(=O)C(=C(C#N)C#N)c2ccccc21 | active: 0.794 µM | 
34 | Nc1nc2ccccc2n1C(=O)c1cccs1 |  | inactive: 0.276%
35 | CC(=O)c1ccc(NC(=O)c2cc(Cl)sc2Cl)cc1 |  | inactive: 10.7%
36 | CC1(C)CC(=O)C2=C(C1)N(c1ccc(F)cc1)C(N)=C(C#N)C2c1cccs1 (stereo not given) |  | inactive: -3.48%
37 | CCc1ccc(/C=C2/C(=O)N(C)C(=S)N2CC(=O)OC)s1 |  | inactive: -6.04%
38 | CCCc1cc2c(n1Cc1cc(F)cc(F)c1)C(C)C1CN(C(=O)c3ccccc3)C(C)(C(=O)OC)C21 (stereo not given) |  | inactive: -1.71%
39 | Cc1ccc(N2CN(CCc3ccccc3)CNC2=S)cc1 |  | inactive: 1.94%
40 | Oc1cc(O)cc(/C=C/c2ccc(O)c(O)c2)c1 | inconclusive: 28.2 µM [inhibitor, partial curve] and inconclusive: 10 µM [inhibitor, partial curve] | 
41 | O=C(/C=C/c1cccs1)N1CCN(c2ccc(O)cc2)CC1 | inconclusive: 39.8 µM [inhibitor, single point] | 
42 | Cc1c(/C(O)=C2\C(=O)C(=O)N(CCCN(C)C)C2c2ccccc2)cnn1-c1ccccc1 (stereo not given) | inconclusive: 39.8 µM [inhibitor, single point] | 
43 | CC1CCN(C(=S)Nc2ccc(F)cc2)CC1 |  | inactive: -0.32%
44 | CCOc1ccc(S(=O)(=O)Nc2cccc(C(=O)N3CCN(c4ccc(OC)cc4)CC3)c2)cc1 | inconclusive: 39.8 µM [inhibitor, single point] | 
45 | COc1ccc(/C=N/S(=O)(=O)CCc2ccccc2)c(OC)c1 |  | inactive: 0.204%
46 | CCN1c2ccc(S(=O)(=O)N3CCOCC3)cc2N(Cc2ccc(OC)cc2)C1C (stereo not given) | inconclusive: 37.7 µM [inhibitor, single point] | 
47 | Cc1cc(C)n(CCNC(=O)CC2C(=O)NCCN2Cc2ccc(C)o2)n1 (stereo not given) |  | inactive: -0.0057%
48 | O=C(NCc1ccccc1)c1c(O)c2cccc3c2n(c1=O)CCC3 | inconclusive: 35.5 µM [inhibitor, single point] | 
49 | CCOC(=O)n1c(=O)n(Cc2cccc(F)c2)c2ccccc21 |  | inactive: 9.02%
50 | CCCCC(CC)CO (stereo not given) | inconclusive: 31.6 µM [inhibitor, single point] | 

Row | Compound | Potency | activity, negative = inhibition
51 | COc1ccc(-n2c(=O)cnc3cnc(Nc4ccccc4)nc32)cc1 | inconclusive: 20 µM [inhibitor, partial curve] | 
52 | COc1ccccc1CCn1cnc2c3cc(C)ccc3n(C)c2c1=O | inconclusive: 35.5 µM [inhibitor, single point] | 
53 | COc1ccc(-c2csc(NC(=O)c3ccco3)n2)cc1 | inconclusive: 39.8 µM [inhibitor, single point] | 
54 | Cc1ccnc(Nc2nc3ccccc3s2)n1 |  | inactive: 3.21%
55 | O=C(Nc1cc(S(=O)(=O)Nc2ccccc2Cl)ccc1O)c1sc2cc(Cl)ccc2c1Cl |  | inactive: 7.92%
56 | CC(=O)Cc1nsc(NC(=O)c2ccc(-c3cc(Cl)ccc3Cl)o2)n1 | inconclusive: 39.8 µM [inhibitor, single point] | 
57 | O=[N+]([O-])c1ccccc1SN(Cc1ccccc1)c1ccccn1 | inconclusive: 31.6 µM [inhibitor, single point] | 
58 | COc1ccc2[nH]c(=O)c(CN(Cc3ccccc3)C(=S)NCC3CCCO3)cc2c1 (stereo not given) | inconclusive: 22.4 µM [inhibitor, partial curve] | 
59 | COc1ccc(-c2noc(CCC(=O)Nc3ccc(C)c(C)c3)n2)cc1 |  | inactive: -10.7%
60 | Cc1ccc(NCc2nnc(SCC(=O)Nc3ccccc3)n2CC2CCCO2)c(C)c1 (stereo not given) | active: 7.94 µM | 
61 | O=C(C1=C(O)C(=O)N(CCN2CCOCC2)C1c1ccncc1)c1ccco1 (stereo not given) | inconclusive: 22.4 µM [inhibitor, single point] | 
62 | Cn1ncc2cc(NC(=S)NC(=O)c3ccccc3)ccc21 | inconclusive: 39.8 µM [inhibitor, single point] | 
63 | COCCn1c(C)cc(C(=O)CSc2ccc3ccccc3n2)c1C |  | inactive: 4.59%
64 | Cc1nn(-c2ccccc2)c2nc(-c3cccs3)cc(C(=O)NN)c12 | inconclusive: 28.2 µM [inhibitor, partial curve] | 
65 | CCOC(=O)C1CCN(C(c2cc3ccc(C)cc3[nH]c2=O)c2nnnn2C2CCCCC2)CC1 (stereo not given) | inconclusive: 3.55 µM [inhibitor, full curve] | 
66 | O=C1c2ccccc2NC2(CCCC2)N1O |  | inactive: 1.06%
67 | CCCOC(=O)c1c(NC(=O)CCCn2nc([N+](=O)[O-])cc2C)sc(C(=O)OC)c1C | inconclusive: 25.1 µM [inhibitor, partial curve] | 
68 | COc1cccc(Nc2nc(-c3sc(NC(=O)c4ccccc4)nc3C)cs2)c1 | inconclusive: 35.5 µM [inhibitor, single point] | 
69 | CC(/C=C/c1ccc2c(c1)OCO2)=N/NC(=O)c1ccc(C)nc1 |  | inactive: -7.91%
70 | COC(=O)c1c(-c2ccc(F)cc2)csc1NC(=O)C1CCCO1 (stereo not given) | active: 20 µM | 
71 | CN(C)c1ccc(NS(=O)(=O)c2ccc(Cl)cc2)cc1 | inconclusive: 39.8 µM [inhibitor, single point] | 
72 | CCn1c(SCc2ccc(C)cc2)nnc1-c1cnccn1 |  | inactive: -3.38%
73 | CC1CCN(CCCCOc2ccccc2Br)CC1 | inconclusive: 25.1 µM [inhibitor, single point] | 
74 | OCCN(CCO)c1nc(-c2ccccc2)nc2c1oc1ccccc12 | inconclusive: 20 µM [inhibitor, partial curve, poor fit] | 
75 | Cn1nnnc1SCC1=C(C(=O)O)N2C(=O)[C@@H](NC(=O)[C@@H](O)c3ccccc3)[C@@H]2SC1 |  | inactive: 13.6% [at 20.9 µM]

From PubChem BioAssay AID1030 (National Center for Advancing Translational Sciences (NCATS), 2008)
